{"source": "paper PMC6919601", "about": "“Identification of Plasmodium dipeptidyl aminopeptidase allosteric inhibitors by high throughput screening” (PLoS ONE, 2019)", "note": "Out of some 110,000 compounds screened, about 230 (0.21%) showed an effect of 50% or more. Some of the results follow.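 Also: 30 min substrate incubation versus DMSO and 10 µM JCP410 controls.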", "data": [{"biological_target": "DPAP1 (Plasmodium falciparum, UniProt Q8IIJ9)", "sequence (Q8IIJ9 whole entry, looked up)": "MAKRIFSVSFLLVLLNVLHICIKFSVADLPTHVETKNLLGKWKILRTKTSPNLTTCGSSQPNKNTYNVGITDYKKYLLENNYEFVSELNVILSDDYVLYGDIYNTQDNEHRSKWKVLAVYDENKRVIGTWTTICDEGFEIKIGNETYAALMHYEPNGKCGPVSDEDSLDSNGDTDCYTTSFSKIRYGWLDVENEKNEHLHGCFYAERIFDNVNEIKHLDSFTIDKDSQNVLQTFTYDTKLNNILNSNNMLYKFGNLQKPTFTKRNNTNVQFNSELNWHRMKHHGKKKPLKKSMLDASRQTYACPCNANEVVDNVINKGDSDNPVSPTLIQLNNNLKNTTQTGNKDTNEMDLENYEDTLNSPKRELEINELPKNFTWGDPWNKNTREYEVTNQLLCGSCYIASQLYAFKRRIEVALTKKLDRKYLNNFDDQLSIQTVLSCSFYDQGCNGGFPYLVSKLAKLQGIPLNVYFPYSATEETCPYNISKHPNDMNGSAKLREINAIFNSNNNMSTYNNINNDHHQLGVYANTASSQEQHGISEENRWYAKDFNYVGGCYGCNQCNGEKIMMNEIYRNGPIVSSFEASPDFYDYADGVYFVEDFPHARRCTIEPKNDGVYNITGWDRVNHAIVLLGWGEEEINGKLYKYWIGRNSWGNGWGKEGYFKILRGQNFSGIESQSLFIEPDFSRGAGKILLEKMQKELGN", "assay": "primary screen, percent inhibition; read by cleavage of a fluorogenic dipeptide substrate; higher = more effect of the substance", "parameters": "species or system P. falciparum D10 trophozoite lysates; single well", "units": {"% Inhibition @ 10 uM": "%"}, "values": [{"molecule": "Cc1cccc(C2=N/C(=C\\c3cccc4ccccc34)C(=O)O2)c1", "% Inhibition @ 10 uM": -0.769}, {"molecule": "CN(C)/C=C1/N=C(c2ccccc2)c2cc(Cl)ccc2N(C)C1=O", "% Inhibition @ 10 uM": -1.42}, {"molecule": "O=C1CC(c2ccccc2)=NN1c1nc(-c2ccccc2)cc(-c2ccc(F)cc2)n1", "% Inhibition @ 10 uM": -5.11}, {"molecule": "CCc1ccc2c(Cl)c(C(=O)NCc3ccncc3)sc2c1", "% Inhibition @ 10 uM": 0.343}, {"molecule": "COc1ccc(CNc2cc(-c3ccccc3)nc3nncn23)cc1", "% Inhibition @ 10 uM": -2.57}, {"molecule": "CCOc1ccc(Nc2nc(-c3ccc(CC(C)C)cc3)cs2)cc1", "% Inhibition @ 10 uM": -5.92}, {"molecule": "Cc1ccc(N2CCn3c2cc(C)c(C#N)c3=O)cc1C", "% Inhibition @ 10 uM": -5.07}, {"molecule": "Cc1ccc(S(=O)(=O)c2nc(S(C)(=O)=O)sc2NC(C)c2ccccc2)cc1", "note": "(stereo not shown)", "% Inhibition @ 10 uM": 1.15}, {"molecule": "COc1ccc(NC(=O)c2c(Cl)cnn2C)c(C)c1", "% Inhibition @ 10 uM": 2.38}, {"molecule": "O=S1(=O)N=C(Oc2ccc(Cl)cc2)c2ccccc21", "% Inhibition @ 10 uM": -0.884}, {"molecule": "O=C(Cn1ncn2c(cc3ccccc32)c1=O)NCCc1cccs1", "% Inhibition @ 10 uM": 1.68}, {"molecule": "COc1cc2c(cc1OC)C(c1ccccc1C(F)(F)F)CC(=O)N2", "note": "(stereo not shown)", "% Inhibition @ 10 uM": -5.23}, {"molecule": "Cc1ccc(C)c(NC(=O)c2ccccc2[N+](=O)[O-])c1", "% Inhibition @ 10 uM": -1.48}, {"molecule": "COc1ccc(/N=C2\\CCCN2C(=O)Nc2cccc(Cl)c2)cc1", "% Inhibition @ 10 uM": 2.01}, {"molecule": "Cn1c2c(c(=O)n(C)c1=O)C(c1cc(Cl)ccc1Cl)C1=C(O)c3ccccc3C1=N2", "note": "(stereo not shown)", "% Inhibition @ 10 uM": 7.1}, {"molecule": "COc1ccccc1-c1cc(C(=O)Nc2cnn(Cc3ccc(Cl)cc3Cl)c2)no1", "% Inhibition @ 10 uM": 10.2}, {"molecule": "CN1CCN(C2CC(=O)N(c3ccc(Cl)cc3Cl)C2=O)CC1", "note": "(stereo not shown)", "% Inhibition @ 10 uM": -2.07}, {"molecule": "S=C1Nc2cc(Cl)ccc2Sc2ccccc21", "% Inhibition @ 10 uM": 4.11}, {"molecule": "O=C(CCNC(=O)c1ccc(Br)o1)NC1CCCC1", "% Inhibition @ 10 uM": -5.64}, {"molecule": "O=C(c1ccc(Br)cc1)c1sc2nccc3c2c1N=CN3c1ccccc1", "% Inhibition @ 10 uM": 2.4}, {"molecule": "CCCOc1ccccc1C1CC(=O)NC(C)=C1C(=O)OCc1ccc(OC)cc1", "note": "(stereo not shown)", "% Inhibition @ 10 uM": 1.97}, {"molecule": "CC1=C(C(=O)OCC(C)C)C(c2ccc(Cl)cc2)NC(=O)N1", "note": "(stereo not shown)", "% Inhibition @ 10 uM": 4.79}, {"molecule": "O=C(Cn1nc(Cc2cccnc2)c2ccccc2c1=O)N1CCN(C2CCCCC2)CC1", "% Inhibition @ 10 uM": -4.69}, {"molecule": "Cc1cc(C)nc(NC(=O)COc2ccc(Cl)cc2Cl)c1", "% Inhibition @ 10 uM": -5.81}, {"molecule": "CCC(Sc1nc2cccnc2[nH]1)C(=O)N1CCCC1", "note": "(stereo not shown)", "% Inhibition @ 10 uM": 4.43}, {"molecule": "COc1ccc(N(CC(=O)Nc2ccccc2C(C)C)S(C)(=O)=O)c(OC)c1", "% Inhibition @ 10 uM": -0.795}, {"molecule": "Cc1cc2c(c(S)n1)C(=O)O/C2=C\\c1ccco1", "% Inhibition @ 10 uM": 67.6}, {"molecule": "COc1cccc(-c2nc(CS(=O)(=O)CC(=O)N3CCc4ccccc4C3)c(C)o2)c1", "% Inhibition @ 10 uM": 3.19}]}]}
